Assay results: publication PMC4336329 (PLoS ONE, 2015)
Screen size: about 310,000 compounds; about 2,200 (0.71%) showed an effect of 50% or more. The effect is printed as a negative number. This is one part of the list.

The compounds below were run against human ether-à-go-go-related gene (hERG) potassium channel (human, UniProt Q12809) (assay: primary screen, population patch clamp on CHO cells stably expressing hERG).
human ether-à-go-go-related gene (hERG) potassium channel, sequence (Q12809 whole entry, looked up): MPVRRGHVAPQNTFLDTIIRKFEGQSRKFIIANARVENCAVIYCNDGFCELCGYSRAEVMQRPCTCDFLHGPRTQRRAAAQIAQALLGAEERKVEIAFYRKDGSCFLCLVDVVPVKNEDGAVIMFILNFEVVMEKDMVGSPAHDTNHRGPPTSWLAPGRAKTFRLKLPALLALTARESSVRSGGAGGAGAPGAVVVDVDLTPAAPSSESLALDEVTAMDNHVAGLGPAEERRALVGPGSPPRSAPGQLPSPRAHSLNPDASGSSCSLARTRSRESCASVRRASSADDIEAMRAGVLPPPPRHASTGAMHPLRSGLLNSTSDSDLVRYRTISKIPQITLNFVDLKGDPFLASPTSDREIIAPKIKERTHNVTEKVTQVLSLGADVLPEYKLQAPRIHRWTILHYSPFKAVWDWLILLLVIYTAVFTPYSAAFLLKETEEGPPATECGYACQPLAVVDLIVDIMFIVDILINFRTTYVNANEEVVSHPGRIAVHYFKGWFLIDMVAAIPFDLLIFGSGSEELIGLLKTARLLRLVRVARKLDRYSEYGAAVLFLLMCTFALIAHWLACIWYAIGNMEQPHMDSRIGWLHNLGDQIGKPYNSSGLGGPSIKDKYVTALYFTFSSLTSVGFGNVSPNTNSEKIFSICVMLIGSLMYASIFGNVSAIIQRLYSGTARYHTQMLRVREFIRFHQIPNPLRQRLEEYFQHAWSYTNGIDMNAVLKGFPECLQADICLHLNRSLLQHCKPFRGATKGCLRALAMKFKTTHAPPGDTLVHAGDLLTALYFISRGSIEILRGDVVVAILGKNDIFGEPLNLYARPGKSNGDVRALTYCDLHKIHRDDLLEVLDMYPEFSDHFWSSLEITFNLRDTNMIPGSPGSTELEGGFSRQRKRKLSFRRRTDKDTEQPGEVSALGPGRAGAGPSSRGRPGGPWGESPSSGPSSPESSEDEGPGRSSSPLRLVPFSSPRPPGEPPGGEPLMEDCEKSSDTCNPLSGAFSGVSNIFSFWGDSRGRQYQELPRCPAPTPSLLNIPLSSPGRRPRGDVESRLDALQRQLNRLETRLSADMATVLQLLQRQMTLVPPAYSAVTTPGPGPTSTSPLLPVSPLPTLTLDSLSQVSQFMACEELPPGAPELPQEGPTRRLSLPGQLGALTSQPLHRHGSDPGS

Row | Structure (SMILES) | hERG current change (%, negative = inhibition) at 1uM [%]
1 | CN(C)S(=O)(=O)c1ccc(C(=O)Nc2nnc(-c3ccc4c(c3)CCCC4)o2)cc1 | 9.35
2 | Cc1ccccc1SCC(=O)NNC(=O)c1ccccc1O | 12.3
3 | COc1ccccc1CNC(=O)C1=CCN(S(=O)(=O)c2ccc(C)cc2)CC1 | 5.9
4 | COc1ccc(NC(=O)CSc2nnc(-c3cccc(O)c3)o2)cc1 | 13.8
5 | O=C(O)c1ccccc1Sc1ncnc2sccc12 | 3.87
6 | CCOc1cc(C2NC(=O)CCC2[N+](=O)[O-])cc(Br)c1OC (stereo not shown) | 7.99
7 | CN(Cc1ccncn1)C(=O)CC1C(=O)NCCN1Cc1cccc(Oc2ccccc2)c1 (stereo not shown) | 11.6
8 | COC(=O)N/N=C/c1cc(Br)ccc1O | 7.24
9 | O=C(N/N=C/c1ccc(N2CCOCC2)c([N+](=O)[O-])c1)c1ccc(F)cc1 | -10
10 | COc1cc(NC(=O)c2ccc([N+](=O)[O-])cc2)c(OC)cc1NC(=O)CC(C)C | 0.276
11 | COc1cc(NC(=O)CN(C)S(=O)(=O)c2ccc3c(c2)CCC(=O)N3)cc(OC)c1 | -4.52
12 | O=C(Nc1ccc(C(F)(F)F)cc1)c1cc(S(=O)(=O)NCC2COc3ccccc3O2)ccc1F (stereo not shown) | 12.7
13 | C=CCOC(=O)C1=C(C)N=c2s/c(=C3\C(=O)N(CC(=O)O)c4ccccc43)c(=O)n2C1c1ccc(OC)cc1.CC(=O)O (stereo not shown) | 9.99
14 | O=C(O)CCC(=O)N1CCc2cc(S(=O)(=O)NC3CCCc4ccccc43)ccc21 (stereo not shown) | 1.13
15 | O=C(COC(=O)CNC(=O)c1ccccc1)Nc1ccc(F)c([N+](=O)[O-])c1 | 6.93
16 | CN(C)S(=O)(=O)c1ccc(Cl)c(C(=O)Nc2nc3ccccc3[nH]2)c1 | 11.8
17 | Cc1ccnc(NS(=O)(=O)c2ccc(NC(=O)C3CCCO3)cc2)n1 (stereo not shown) | 4.25
18 | CC(C)Cn1c(-c2cc(Br)ccc2F)nc2c1c(=O)[nH]c(=O)n2CC(C)C | 8.49
19 | CCc1ccc(Nc2nnc(SCC(=O)Nc3ccc(C(=O)O)cc3)s2)cc1 | 13
20 | CC(C)(C)C(=O)Nc1cc(S(=O)(=O)N2CCCCC2)ccc1N1CCCCC1 | 12.6
21 | CCCSCCCNC(=O)Cn1cc2c(n1)CCCCC2 | 11.8
22 | O=C(O)C(F)(F)F.O=C1C(Cc2ccccc2)Nc2ncnc(N3CCN(c4ccccc4)CC3)c2N1Cc1ccccc1 (stereo not shown) | 9.42

Row | Structure (SMILES) | hERG current change (%, negative = inhibition) at 1uM [%]
23 | CCOC(=O)c1c(NC(=O)CSc2nc3cccnc3n2C)sc(C(C)=O)c1C | 10.7
24 | CCCCn1c(O)c(C(CC)=NC(C)c2ccccc2)c(=O)[nH]c1=O (stereo not shown) | -2.57
25 | O=C(O)CCC(=O)N(Cc1ccco1)C1CC(=O)N(c2ccccc2)C1=O (stereo not shown) | 12.5
26 | Cc1ccccc1NC(=O)COC(=O)/C=C/c1cccc(C(F)(F)F)c1 | 0.0962
27 | CC(=O)Nc1cccc(NC(=O)Nc2ccc(F)cc2F)c1 | 15.3
28 | CC(CNC(=O)COc1ccccc1)OC(=O)Nc1ccc(Cl)c(Cl)c1 (stereo not shown) | 8.02
29 | c1ccc(CCC2CCCCN2Cc2cn[nH]c2-c2cc3ccccc3o2)nc1 (stereo not shown) | -67
30 | CCOC(=O)c1cn[nH]c1NC(=S)Nc1ccc(OC)cc1 | 13.3
31 | COc1ccccc1N1CCN(C(=O)C2CCN(S(=O)(=O)c3ccccc3F)CC2)CC1 | 6.93
32 | COc1ccc(/C(O)=C2\C(=O)C(=O)N(CCN(C)C)C2c2cccc(OC)c2OC)cc1 (stereo not shown) | 10.7
33 | COc1cc(/C=N/NC(=O)Cc2ccc(Br)cc2)cc(OC)c1O | 15.4
34 | Cc1oc2c(cc(NS(=O)(=O)c3ccc4c5c(cccc35)C(=O)N4)c3ccccc32)c1C(=O)OC(C)C | 9.59
35 | CC1CC(C)CN(C(=O)Cn2ncc3c([nH]c4ccccc43)c2=O)C1 (stereo not shown) | 20.6
36 | O=C(NC1CC1)C1=C[C@H](c2csc3ccccc23)C[C@H](OCCCCO)O1 | 8.58
37 | Cc1cc(C)n2nc(CC(=O)NNC(=O)c3ccccc3Cl)nc2n1 | 17.8
38 | O=S(=O)(c1ccc(F)cc1)N(CCO)CC(O)Cn1c2ccccc2c2ccccc21 (stereo not shown) | 11.1
39 | COCc1cc(C)nc(OCC(=O)N/N=C/c2cccc(OC)c2)c1C#N | 8.44
40 | CNC(=O)COC(=O)c1cc(-c2ccc(OC)cc2)nc2ccccc12 | 0.122
41 | COc1ccc2[nH]cc(CCN(C)C)c2c1 | 9.75
42 | CC1S/C(=N/N=C/c2cccs2)NC1=O (stereo not shown) | 8.3
43 | O=C1C=C(c2cc3ccccc3s2)C[C@@H](c2ccc3c(c2)OCO3)C1 | 8.75
44 | O=C(Nc1ccc2c(c1)CCC2)c1c(F)cccc1Cl | 22.5

Row | Structure (SMILES) | hERG current change (%, negative = inhibition) at 1uM [%]
45 | Cc1cccc(NC(=O)c2cc3ccccc3nc2C)c1 | 15.1
46 | O=C(Nc1cccc2ccccc12)c1cnsn1 | 7.68
47 | c1ccc(SCc2nc(-c3ccncc3)n[nH]2)nc1 | 5.95
48 | Cc1cc(C)cc(NC(=O)C(Sc2ncnc3ccccc23)c2ccccc2)c1 (stereo not shown) | 18
49 | O=C(NCC1(c2ccccc2)CCCC1)C(=O)N1CCOCC1 | 10.2
50 | CCN1CCN(c2ccc(S(=O)(=O)N3CCCCC3)cc2NC(=O)COc2ccccc2)CC1 | -8.8
51 | Cc1ccc(/C=C(\CCC(=O)O)c2nc3ccccc3s2)cc1[N+](=O)[O-] | 13.1
52 | CCOC(=O)c1nn(-c2ccccc2)c2nnc(Cc3ccccc3)c(=O)n12 | 6.15
53 | Cc1ccc(-c2csc(N(Cc3ccccc3)C(=O)COc3ccccc3)n2)cc1 | 7.31
54 | O=C1C(c2ccc(F)cc2)N(Cc2ccc3c(c2)OCO3)C(=O)CN1C1CCCC1 (stereo not shown) | 9.97
55 | CC1=C(C(N)=O)C(c2ccc(Br)cc2)n2nc(CCCO)nc2N1 (stereo not shown) | 13.1
56 | Cc1ccc(CN2CC(C(=O)N3CCN(S(=O)(=O)c4ccc(C(C)C)cc4)CC3)CC2=O)cc1 (stereo not shown) | -7.96
57 | Cc1ccc(Cn2c(=O)c3ccccc3n3c(CCC(=O)NCCN4CCOCC4)nnc23)cc1 | -0.353
58 | O=C(Nc1nnc(S(=O)(=O)N2CCOCC2)s1)c1ccccc1Cl | 4.11
59 | COc1cc2cc(CCCOC(=O)c3ccc4c(c3)OCO4)oc(=O)c2cc1OC | 12.1
60 | COc1ccccc1NC(=O)Nc1ccc2c(c1)CCC2 | 8.95
61 | CSc1ccc(/C=N/NC(=O)c2cc(O)cc(O)c2)cc1 | 6.37
62 | C#CC[N+]1(C)[C@@H]2CC[C@H]1CC(OC(=O)C(CO)c1ccccc1)C2.[Br-] (stereo partly shown) | 9.58
63 | Cc1cc([N+](=O)[O-])ccc1NCc1ccco1 | 6.94
64 | CC(C)(C)c1ccc(NC(=O)NC2CCCc3ccccc32)cc1 (stereo not shown) | 17.9
65 | O=C(/C=C/c1ccc(Cl)cc1)Nc1ccc(Br)cn1 | 7.07
66 | O=C(NCc1ccccc1)Nc1cc(Cl)ccc1Cl | 14.8

Row | Structure (SMILES) | hERG current change (%, negative = inhibition) at 1uM [%]
67 | O=C(COc1ccc([N+](=O)[O-])cc1Cl)Nn1cnnc1 | 12.2
68 | CSc1cccc(NC(C)C(=O)NCc2ccccc2)c1 (stereo not shown) | 31.8
69 | N/C(=N\OC(=O)c1cc(-c2ccccc2)nc2ccccc12)c1ccc(Cl)cc1 | -7.02
70 | CCN=c1scc(C)n1/N=C/c1cc(Br)c(O)c(OC)c1 | 6.63
71 | Cc1cc(C)n2nc(SCCOc3ccc(F)cc3)nc2n1 | -13.1
72 | CCCC(c1nnnn1C(C)(C)CC)N1CCN(C(=O)c2ccco2)CC1.Cl (stereo not shown) | -7.15
73 | COc1ccccc1NS(=O)(=O)c1cc(NC(=O)c2ccc3ccccc3n2)ccc1Cl | 12.4
74 | CCC(=O)N1CCc2cc(S(=O)(=O)CCC(=O)Nc3ccc(C)cn3)ccc21 | 4.89
75 | CCN(C(=O)COC(=O)C1CCN(S(=O)(=O)c2ccc(C)c(C)c2)CC1)C1CCS(=O)(=O)C1 (stereo not shown) | 13.2
76 | COc1ccc(-n2c(O)c(C(C)=NCCc3c[nH]c4ccccc34)c(=O)[nH]c2=O)cc1 | 17.3
77 | O=C(Nc1cc(C(F)(F)F)ccc1Cl)C(Sc1nnc(-c2cccs2)o1)c1ccccc1 (stereo not shown) | 11.3
78 | S=c1nc(-c2cc(Cl)cc(Cl)c2)[nH][nH]1 | 13.3
79 | O=c1cc(-c2ccccc2F)nc(-c2ccccc2F)o1 | 9.54
80 | Cc1cc(O)ccc1N/C=C(\C#N)c1nc2ccccc2o1 | 13.5
81 | CCOP(=O)(OCC)OCC | 12.7
82 | CC(C)(C)NC(=O)C(=O)NNC(=O)C12CC3CC(CC(C3)C1)C2 | 9.04
83 | COC(=O)c1ccc(COC(=O)C2CC(O)CN2S(=O)(=O)c2ccc([N+](=O)[O-])cc2)cc1 (stereo not shown) | 3.85
84 | Nc1nc(SCC(=O)Nc2ncc(C(F)(F)F)cc2Cl)n[nH]1 | 11.5
85 | CC(CCc1ccccc1)NC(C)C(O)c1ccc(O)cc1.Cl (stereo not shown) | -48.6
